In all, about 52,000 compounds went through this assay and about 1,700 (3.3%) were called active. Cut-off read from the data, not from the text of the source: active = survival mostly below about 52% (no sharp cut-off); inactive = mostly above about 56%. The list shows a part of the results.
What follows are molecules tested on Wild type (assay: growth inhibition of S. aureus wild type versus tarO mutant, primary screen, teichoic acid synthesis inhibitors, RN4220, OD600 (AID 463173)). Settings: S. aureus RN4220 wild type/DeltatarO growth, OD600, 18 h, hits give low values, screened at 18.75 µg/mL (by protocol).

Structure (SMILES)	survival
CC(C)c1ccc(S(=O)(=O)c2nnn3c2nc(N2CCCCC2)c2sccc23)cc1	inactive: 69%
C1=C(C(c2nnnn2C2CCCCC2)N2CCCCC2)COc2ccccc21 (stereo not given)	inactive: 103%
Cc1ccc(C)c(Cn2c(-c3cccs3)nc3ccccc32)c1	active: 8%
Cc1ccc(C)c(CN2C(=O)N(c3cc(Cl)ccc3C)S(=O)(=O)c3ccccc32)c1	inactive: 59%
CC(C)Cc1ccc(S(=O)(=O)Nc2cc3c(cc2N2CCOCC2)n(C)c(=O)c(=O)n3C)cc1	inactive: 63%
CCOc1ccccc1CNS(=O)(=O)c1ccc2[nH]c(=O)ccc2c1	inactive: 71%
COc1ccc(COC(=O)C2=C(C)NC3(O)c4ccccc4C(=O)C23O)cc1 (stereo not given)	inactive: 89%
COc1cccc(C(=O)Nc2ccc(-c3cc(C(F)(F)F)nn3-c3ccccc3)cc2)c1	inactive: 84%
CCN(CCCNC(=O)CN1N=C(c2ccc(OC)cc2)CCC1=O)c1cccc(C)c1	inactive: 124%
COc1ccc(NC(=O)CSc2nnc(NC(=O)Nc3ccc(OC)cc3)s2)cc1	inactive: 79%
Oc1cc2ccsc2c2ccccc12	active: 18%
CCOC(=O)C1CCCN(C(=O)c2cc3c(=O)[nH]c4ccc(C)cc4c3s2)C1 (stereo not given)	inactive: 59%
CN(Cc1ccccc1)S(=O)(=O)c1cc(Br)cc2c1N(C(=O)C1CC1)CC2	inactive: 50%
CCC(C(=O)Nc1c(C)cc(C)cc1C)n1c(=O)c(-c2ccccc2NC(C)=O)nc2ccccc21 (stereo not given)	inactive: 87%
Cc1cccc(NC(=O)CCCCCn2c(=O)[nH]c3ccsc3c2=O)c1	inactive: 71%
COc1cccc(Nc2sc(C(=O)c3ccc(F)cc3)c(N)c2C(=O)NCc2ccc(Cl)cc2)c1	active: 0%
CCOc1ccc(CCNC(=O)CCCn2nc(C)c3sc4ccccc4c3c2=O)cc1	inactive: 85%
CCCCN(C)CCCNC(=O)c1cc(-c2ccc(Br)s2)nc2ccccc12	active: 26%
Cc1ccc(NS(=O)(=O)c2c(C)[nH]c(=O)[nH]c2=O)c(C)c1	inactive: 84%
CC1CC(C)CN(C(=O)Cn2c(SCC(=O)N(C(C)C)C(C)C)nc3ccccc32)C1 (stereo not given)	inactive: 106%
COc1cccc(N2CC(NC(=O)CCCc3ccccc3)CC2=O)c1 (stereo not given)	inactive: 88%
COc1ccc(-c2ccc(NS(=O)(=O)c3ccc(C(C)=O)cc3)cc2)nn1	inactive: 76%
NNC(=O)CCc1nc2ccccc2[nH]1	inactive: 110%

Structure (SMILES)	survival
Cc1cccc(N2CCN(C(=O)c3cn(CC(C)C)c(=O)c4c3c3ccccc3n4C)CC2)c1C	inactive: 89%
COc1cc(S(=O)(=O)N2CCN(C)CC2)c(C)cc1C	inactive: 103%
Cc1ccc(-c2noc(CNC(=O)c3ccc(Br)o3)n2)cc1	inactive: 99%
Cc1cc(C)c(C(=O)O)c(=O)[nH]1	inactive: 104%
Cc1cccc(N2CCN(C(=O)c3cccc(-n4c(C)nc5cccnc54)c3)CC2)c1C	inactive: 126%
Cc1ccccc1-c1nc2cc(NC(=O)Cc3ccc(Cl)cc3)ccc2o1	inactive: 94%
CCOc1ccccc1CNC(=O)C1CCN(c2nn3cc(-c4ccc(F)cc4)nc3s2)CC1	inactive: 93%
CCCCCCOc1ccc(C2C(=O)N(C3CCCCC3)CC(=O)N2CCC)cc1 (stereo not given)	inactive: 75%
N#C/C(=C\c1ccc(Cl)cc1Cl)c1nc(-c2cccc(Cl)c2)cs1	inactive: 82%
CCOc1ccccc1N(CC(=O)NCCSc1ccccc1)S(=O)(=O)c1ccccc1	inactive: 75%
CC(C)c1ccc(CN(Cc2ccco2)c2cnc(S(C)(=O)=O)nc2C(=O)Nc2ccc(F)cc2)cc1	inactive: 86%
Cc1ccc(C(=O)Nc2cc3nn(-c4ccccc4)nc3cc2Cl)c(C)c1	inactive: 62%
Cc1nnc(N2CCC(C(=O)NCCc3ccccc3Cl)CC2)c2nn(-c3ccccc3)c(C)c12	inactive: 124%
Cc1cccc(N2CCN(C(=O)Nc3cn(CC(C)C)c(=O)c4ccccc34)CC2)c1C	inactive: 68%
COc1ccccc1C(=O)Nc1ccncc1	inactive: 105%
COc1ccccc1Cc1nc2ccccc2nc1SCC(=O)N(C)c1ccc(F)cc1	inactive: 84%
CCc1nn(CC(=O)NCCCN(CC(C)C)CC(C)C)c(=O)c2cc3sc(C)cc3n12	inactive: 131%
COc1ccccc1N1CCN(C(=O)Cn2cnc3onc(-c4ccc(F)cc4)c3c2=O)CC1	inactive: 82%
CCOC(=O)/C(C#N)=C/c1ccc2c(c1)c1ccccc1n2CC	inactive: 110%
CCCCN(C)C(=O)C1CCCN(c2ncnc3onc(C)c23)C1 (stereo not given)	inactive: 132%
O=C(O)c1ccc(/C=N/n2cnnc2)cc1	inactive: 101%
CCOc1ccc(C(=O)Nc2cccc(-c3nc4cc(Cl)cc(Cl)c4o3)c2)cc1	inactive: 69%
COc1ccc(Cn2c(=O)c3oc4ccccc4c3n(Cc3cccc(C(F)(F)F)c3)c2=O)cc1	inactive: 81%

Structure (SMILES)	survival
O=C(c1ccc2c(=O)n(CCc3ccccc3)c(=O)[nH]c2c1)N1CCN(c2ccc(F)cc2)CC1	inactive: 113%
Cc1nn(-c2ccccc2)c2c1N(CC(=O)N1CCN(c3cccc(Cl)c3)CC1)C(=O)CS2	inactive: 70%
COc1ccc(N=C2SC(C(=O)Nc3ccccc3)CC(=O)N2C)cc1 (stereo not given)	inactive: 104%
COc1cccc(N2CC(NC(=O)c3ccco3)CC2=O)c1 (stereo not given)	active: 10%
CCOc1cccc2sc(N3CCN(C(=O)C4CC4)CC3)nc12	inactive: 53%
Cc1cccc(N2CCN(C(=O)c3ccc4c(c3)N(Cc3cccc(Cl)c3)C(=O)c3ccccc3S4=O)CC2C)c1 (stereo not given)	inactive: 88%
CCCn1cc(S(=O)(=O)c2ccc(CC)cc2)c(=O)c2cc(F)c(N(CC)CC)cc21	inactive: 68%
CCOc1cccc(NC(=O)CSc2ncc(-c3ccccc3)[nH]2)c1	inactive: 68%
CCOc1ccc(CNC(=O)c2cc(=O)[nH]c3ccc(S(=O)(=O)N4CCCC4)cc23)cc1	inactive: 70%
COc1ccc(C(=O)Nc2nc3c(s2)CCCC3)cc1Cl	inactive: 40%
COc1ccc(Cl)cc1CNCCSc1nnnn1C	inactive: 74%
Cn1c(=O)c2c(-c3ccccc3)n3c(c2n(C)c1=O)C(c1ccco1)Nc1ccccc1-3 (stereo not given)	inactive: 85%
CC(=O)c1ccc(N2CCN(C(=O)CCCCn3c(=O)[nH]c4ccccc4c3=O)CC2)cc1	inactive: 153%
c1nnnn1C12CC3CC(CC(C3)C1)C2	inactive: 105%
Cc1cc(C)cc(NC(=O)CCCn2c3ccccc3c(=O)c3ccccc32)c1	inactive: 69%
Cc1cccc(Cn2c(=O)n(CCC(=O)NCCc3ccc(Cl)cc3)c(=O)c3sccc32)c1	inactive: 91%
CCOc1ccc(NC(=O)c2ccc3c(c2)CCN3S(=O)(=O)c2ccc(Cl)cc2)cc1	inactive: 82%
Cc1ccc(NC(=O)CCC(=O)N2Cc3ccccc3Oc3ncccc32)cc1F	inactive: 82%
O=C(NCc1ccc(F)cc1)c1ccc2nc(N3CCCCC3)sc2c1	inactive: 87%
COc1ccc(OC)c(CNC(=O)c2nn(C)c3c2CSc2ccccc2-3)c1	inactive: 115%
O=C(NC1CCCCC1)NC1CCN(Cc2nnnn2Cc2ccco2)CC1	inactive: 97%
Fc1cccc(Cl)c1Cn1c(-c2cccs2)nc2ccccc21	active: 26%
Cc1cc(-c2ccc(C)c(S(=O)(=O)NCC3CCN(Cc4ccc(F)cc4)CC3)c2)on1	inactive: 73%

Structure (SMILES)	survival
CNC(=S)N(Cc1cc2cc(OC)ccc2[nH]c1=O)CC1CCCO1 (stereo not given)	inactive: 108%
O=C(NCC(c1ccc2c(c1)OCO2)N1CCOCC1)C(=O)Nc1cccc(Cl)c1 (stereo not given)	inactive: 73%
CC(=O)c1ccc(NC(=O)c2cc(S(=O)(=O)N3CCCCCC3)cn2C)cc1	inactive: 70%
COc1ccc(-c2nc3c(c(SCC(=O)Nc4ccccc4F)n2)Cc2cc(C)ccc2O3)cc1	inactive: 80%
CC1CCCC(C)N1S(=O)(=O)c1ccccc1 (stereo not given)	inactive: 101%
Cc1ccc(NC(=O)CCCc2nnc3n(C)c(=O)c4sccc4n23)cc1F	inactive: 79%
CCCNC(=O)c1ccc2c(c1)sc1nc(-c3ccc(C)cc3)cn12	inactive: 103%
NC(=O)C1(N2CCCCC2)CCN(C(=O)Nc2ccc(F)cc2)CC1	inactive: 102%
CCc1ccccc1NC(=O)CN1C(=O)c2ccccc2Sc2ncccc21	inactive: 95%
O=C(CNC(=O)c1ccccc1)OCc1cc(=O)n2ccsc2n1	inactive: 73%
CC1CCn2c(nc3cc(C(=O)NCc4ccccc4)ccc32)C1 (stereo not given)	inactive: 89%
Cc1ccc(C)c(N2CCN(C(=O)C3CCCN(Cc4nc(-c5cccc(Cl)c5)oc4C)C3)CC2)c1 (stereo not given)	inactive: 81%
CCn1cc(C(=O)NCCCN2CCCC(C)C2)c(=O)c2cc(S(=O)(=O)N(C)C3CCCCC3)ccc21 (stereo not given)	inactive: 91%
Cc1cc(C)cc(-n2ccn(CC(=O)Nc3cc(C)ccc3C)c(=O)c2=O)c1	inactive: 88%
Cc1ccc(N2CC(NC(=O)c3ccc(S(=O)(=O)N4CCCC4)cc3)CC2=O)cc1C (stereo not given)	inactive: 88%
Nc1nc2ccccc2n1C(=O)c1ccccc1	inactive: 114%
COc1ccc(CCNc2nc(-c3ccc(OC)c(OC)c3)cc(C(F)(F)F)n2)cc1OC	active: 0%
Cc1cccc(CS(=O)(=O)Cc2ccc(C(=O)NCCc3ccccc3)o2)c1	inactive: 113%
Cc1ccc(-c2cn(-c3cccc(Cl)c3)c(S(=O)(=O)CC(=O)Nc3cccc(C)c3)n2)cc1	inactive: 82%
CCOC(=O)c1c(S(=O)(=O)N2CCCC(C(=O)NCc3cccc(OC)c3)C2)c(C)n(C)c1C (stereo not given)	inactive: 127%
COc1cccc(OC)c1C(=O)Nc1cccc(-c2cn3ccsc3n2)c1	inactive: 72%

Source: PubChem BioAssay AID463173 (ICCB-Longwood Screening Facility, Harvard Medical School, 2010)
